# In the supplement of paper PMC8728848:
# Some of the results follow.
# How the values were obtained:
# Test in all cases: glycan array binding signal (z-score within array); higher = stronger binding
# Settings in all cases: glycan notation: IUPAC condensed, linker removed
# [1] = target: Neu5Ac(a2-6)Gal(b1-3)GlcNAc(b1-3)[Gal(b1-4)GlcNAc(b1-6)]Gal(b1-4)Glc
# Summary of the method: (§1)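 Columns mapping to the same glycan were averaged after glycan names were converted to IUPAC-condensed notation. The data come from 3228 arrays in the Consortium for Functional Glycomics database, limited to those with an available protein sequence. Binding is reported as a within-array Z-score averaged across arrays of one protein sequence and across linkers.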
# Neu5Ac(a2-6)Gal(b1-4)Glc = target: Neu5Ac(a2-6)Gal(b1-4)Glc
# Summary of the method: as §1
# [2] = target: Neu5Ac(a2-6)Gal(b1-4)GlcNAc
# Summary of the method: as §1
# [3] = target: Neu5Ac(a2-6)Gal(b1-4)GlcNAc(b1-2)Man
# Summary of the method: as §1
# [4] = target: Neu5Ac(a2-6)Gal(b1-4)GlcNAc(b1-2)Man(a1-3)Man(b1-4)GlcNAc(b1-4)GlcNAc
# Summary of the method: as §1
# [5] = target: Neu5Ac(a2-6)Gal(b1-4)GlcNAc(b1-2)Man(a1-3)[Gal(b1-4)GlcNAc(b1-2)Man(a1-6)]Man(b1-4)GlcNAc(b1-4)GlcNAc
# Summary of the method: as §1
# [6] = target: Neu5Ac(a2-6)Gal(b1-4)GlcNAc(b1-2)Man(a1-3)[GlcNAc(b1-2)Man(a1-6)]Man(b1-4)GlcNAc(b1-4)GlcNAc
# Summary of the method: as §1
# [7] = target: Neu5Ac(a2-6)Gal(b1-4)GlcNAc(b1-2)Man(a1-3)[GlcNAc(b1-4)][Neu5Ac(a2-6)Gal(b1-4)GlcNAc(b1-2)Man(a1-6)]Man(b1-4)GlcNAc(b1-4)GlcNAc
# Summary of the method: as §1
# [8] = target: Neu5Ac(a2-6)Gal(b1-4)GlcNAc(b1-2)Man(a1-3)[Man(a1-6)]Man(b1-4)GlcNAc(b1-4)GlcNAc
# Summary of the method: as §1
# [9] = target: Neu5Ac(a2-6)Gal(b1-4)GlcNAc(b1-2)Man(a1-3)[Neu5Ac(a2-3)Gal(b1-4)GlcNAc(b1-2)Man(a1-6)]Man(b1-4)GlcNAc(b1-4)GlcNAc
# Summary of the method: as §1
# [10] = target: Neu5Ac(a2-6)Gal(b1-4)GlcNAc(b1-2)Man(a1-3)[Neu5Ac(a2-6)Gal(b1-4)GlcNAc(b1-2)Man(a1-6)]Man(b1-4)GlcNAc(b1-4)GlcNAc
# Summary of the method: as §1
# [11] = target: Neu5Ac(a2-6)Gal(b1-4)GlcNAc(b1-2)Man(a1-3)[Neu5Ac(a2-6)Gal(b1-4)GlcNAc(b1-2)Man(a1-6)]Man(b1-4)GlcNAc(b1-4)[Fuc(a1-6)]GlcNAc
# Summary of the method: as §1
# [12] = target: Neu5Ac(a2-6)Gal(b1-4)GlcNAc(b1-2)Man(a1-6)Man(b1-4)GlcNAc(b1-4)GlcNAc
# Summary of the method: as §1
# [13] = target: Neu5Ac(a2-6)Gal(b1-4)GlcNAc(b1-2)Man(a1-6)[Gal(b1-4)GlcNAc(b1-2)Man(a1-3)]Man(b1-4)GlcNAc(b1-4)GlcNAc
# Summary of the method: as §1
# [14] = target: Neu5Ac(a2-6)Gal(b1-4)GlcNAc(b1-2)Man(a1-6)[GlcNAc(b1-2)Man(a1-3)]Man(b1-4)GlcNAc(b1-4)GlcNAc
# Summary of the method: as §1
# [15] = target: Neu5Ac(a2-6)Gal(b1-4)GlcNAc(b1-2)Man(a1-6)[Man(a1-3)]Man(b1-4)GlcNAc(b1-4)GlcNAc
# Summary of the method: as §1
# [16] = target: Neu5Ac(a2-6)Gal(b1-4)GlcNAc(b1-2)[Neu5Ac(a2-6)Gal(b1-4)GlcNAc(b1-4)]Man(a1-3)[GlcNAc(b1-4)][Neu5Ac(a2-6)Gal(b1-4)GlcNAc(b1-2)[Neu5Ac(a2-6)Gal(b1-4)GlcNAc(b1-6)]Man(a1-6)]Man(b1-4)GlcNAc(b1-4)GlcNAc
# Summary of the method: as §1
# [17] = target: Neu5Ac(a2-6)Gal(b1-4)GlcNAc(b1-2)[Neu5Ac(a2-6)Gal(b1-4)GlcNAc(b1-4)]Man(a1-3)[GlcNAc(b1-4)][Neu5Ac(a2-6)Gal(b1-4)GlcNAc(b1-4)Man(a1-6)]Man(b1-4)GlcNAc(b1-4)GlcNAc
# Summary of the method: as §1
# [18] = target: Neu5Ac(a2-6)Gal(b1-4)GlcNAc(b1-2)[Neu5Ac(a2-6)Gal(b1-4)GlcNAc(b1-6)]Man(a1-6)[Neu5Ac(a2-6)Gal(b1-4)GlcNAc(b1-2)Man(a1-3)][GlcNAc(b1-4)]Man(b1-4)GlcNAc(b1-4)GlcNAc
# Summary of the method: as §1
# [19] = target: Neu5Ac(a2-6)Gal(b1-4)GlcNAc(b1-3)Gal(b1-3)GlcNAc
# Summary of the method: as §1
# [20] = target: Neu5Ac(a2-6)Gal(b1-4)GlcNAc(b1-3)Gal(b1-4)GlcNAc
# Summary of the method: as §1
# [21] = target: Neu5Ac(a2-6)Gal(b1-4)GlcNAc(b1-3)Gal(b1-4)GlcNAc(b1-2)Man(a1-3)[Neu5Ac(a2-6)Gal(b1-4)GlcNAc(b1-3)Gal(b1-4)GlcNAc(b1-2)Man(a1-6)]GalNAc
# Summary of the method: as §1
# [22] = target: Neu5Ac(a2-6)Gal(b1-4)GlcNAc(b1-3)Gal(b1-4)GlcNAc(b1-3)Gal(b1-4)GlcNAc
# Summary of the method: as §1
# [23] = target: Neu5Ac(a2-6)Gal(b1-4)GlcNAc(b1-3)Gal(b1-4)GlcNAc(b1-3)Gal(b1-4)GlcNAc(b1-2)Man(a1-3)[Neu5Ac(a2-6)Gal(b1-4)GlcNAc(b1-3)Gal(b1-4)GlcNAc(b1-3)Gal(b1-4)GlcNAc(b1-2)Man(a1-6)]GalNAc
# Summary of the method: as §1
# [24] = target: Neu5Ac(a2-6)Gal(b1-4)GlcNAc(b1-3)Gal(b1-4)GlcNAc(b1-3)GalNAc
# Summary of the method: as §1
# [25] = target: Neu5Ac(a2-6)Gal(b1-4)GlcNAc(b1-3)Gal(b1-4)GlcNAc(b1-3)[Neu5Ac(a2-6)Gal(b1-4)GlcNAc(b1-3)Gal(b1-4)GlcNAc(b1-6)]GalNAc
# Summary of the method: as §1
# [26] = target: Neu5Ac(a2-6)Gal(b1-4)GlcNAc(b1-3)Gal(b1-4)GlcNAc(b1-6)[Gal(b1-3)]GalNAc
# Summary of the method: as §1
# [27] = target: Neu5Ac(a2-6)Gal(b1-4)GlcNAc(b1-3)Gal(b1-4)[Fuc(a1-3)]GlcNAc(b1-3)Gal(b1-4)[Fuc(a1-3)]GlcNAc
# Summary of the method: as §1
# [28] = target: Neu5Ac(a2-6)Gal(b1-4)GlcNAc(b1-3)GalNAc
# Summary of the method: as §1
# [29] = target: Neu5Ac(a2-6)Gal(b1-4)GlcNAc(b1-3)[Neu5Ac(a2-6)Gal(b1-4)GlcNAc(b1-6)]GalNAc
# Summary of the method: as §1
# [30] = target: Neu5Ac(a2-6)Gal(b1-4)GlcNAc(b1-6)GalNAc
# Summary of the method: as §1
# [31] = target: Neu5Ac(a2-6)Gal(b1-4)GlcNAc(b1-6)[Gal(b1-3)GlcNAc(b1-3)]Gal(b1-4)Glc
# Summary of the method: as §1
# [32] = target: Neu5Ac(a2-6)Gal(b1-4)GlcNAc(b1-6)[Gal(b1-3)]GalNAc
# Summary of the method: as §1
# [33] = target: Neu5Ac(a2-6)Gal(b1-4)GlcNAc6S
# Summary of the method: as §1
# Neu5Ac(a2-6)GalNAc = target: Neu5Ac(a2-6)GalNAc
# Summary of the method: as §1
# [34] = target: Neu5Ac(a2-6)GalNAc(b1-4)GlcNAc
# Summary of the method: as §1
# [35] = target: Neu5Ac(a2-6)GalNAc(b1-4)GlcNAc6S
# Summary of the method: as §1
# [36] = target: Neu5Ac(a2-6)GlcNAc(b1-4)GlcNAc
# Summary of the method: as §1
binder,measurement,setting,value
Cohesin-hMARCO (Homo sapiens) (protein) LDDLDAVRIKVDTVNAKPGDTVRIPVRFSGIPSKGIANCDFVYSYDPNVLEIIEIEPGDIIVDPNPDKSFDTAVYPDRKIIVFLFAEDSGTGAYAITKDGVFATIVAKVKEGAPNGLSVIKFVEVGGFANNDLVEQKTQFFDGGANVGDTTEPATPTTPVTTPTTTDDLDAASVRIVGSSNRGRAEVYYSGTWGTICDDEWQNSDAIVFCRMLGYSKGRALYKVGAGTGQIWLDNVQCRGTESTLWSCTKNSWGHHDCSHEEDAGVECSVHHHHHH,glycan array binding signal (z-score),[1],-0.4
same,glycan array binding signal (z-score),Neu5Ac(a2-6)Gal(b1-4)Glc,-0.411
same,glycan array binding signal (z-score),[2],0.003
same,glycan array binding signal (z-score),[3],-0.526
same,glycan array binding signal (z-score),[4],-0.523
same,glycan array binding signal (z-score),[5],-0.418
same,glycan array binding signal (z-score),[6],-0.492
same,glycan array binding signal (z-score),[7],-0.514
same,glycan array binding signal (z-score),[8],-0.559
same,glycan array binding signal (z-score),[9],-0.554
same,glycan array binding signal (z-score),[10],-0.385
same,glycan array binding signal (z-score),[11],0.131
same,glycan array binding signal (z-score),[12],-0.581
same,glycan array binding signal (z-score),[13],-0.561
same,glycan array binding signal (z-score),[14],-0.356
same,glycan array binding signal (z-score),[15],-0.445
same,glycan array binding signal (z-score),[16],-0.067
same,glycan array binding signal (z-score),[17],-0.104
same,glycan array binding signal (z-score),[18],-0.413
same,glycan array binding signal (z-score),[19],-0.475
same,glycan array binding signal (z-score),[20],-0.161
same,glycan array binding signal (z-score),[21],-0.37
same,glycan array binding signal (z-score),[22],-0.582
same,glycan array binding signal (z-score),[23],-0.27
same,glycan array binding signal (z-score),[24],-0.2
same,glycan array binding signal (z-score),[25],-0.49
same,glycan array binding signal (z-score),[26],-0.395
same,glycan array binding signal (z-score),[27],-0.435
same,glycan array binding signal (z-score),[28],-0.019
same,glycan array binding signal (z-score),[29],-0.384
same,glycan array binding signal (z-score),[30],-0.495
same,glycan array binding signal (z-score),[31],-0.058
same,glycan array binding signal (z-score),[32],-0.023
same,glycan array binding signal (z-score),[33],-0.173
same,glycan array binding signal (z-score),Neu5Ac(a2-6)GalNAc,0.214
same,glycan array binding signal (z-score),[34],-0.223
same,glycan array binding signal (z-score),[35],-0.503
same,glycan array binding signal (z-score),[36],-0.302
